From PubChem BioAssay AID1259407 (Chemical Carcinogenesis Research Information System (CCRIS), 2018) come the findings set out here.

“Also recorded” adds a separate entry of the source. Not every entry of the source has a single result; some have several. This is not the full list of results. An entry can have further records. How the calls were made is not given here. Results that share an entry differ for a reason that is not stated; they may come from other doses, times, organisms or constructs than stated. Brackets tell where a record comes from. A, B and so on number the origins entry by entry. Marks such as (2×) count equal records among those shown.

This series deals with CCRIS mutagenicity, Ames/micronucleus/aberration tests. The series is described as follows: CCRIS mutagenicity studies.
[1] abbreviates: Test System: AMES SALMONELLA TYPHIMURIUM, Strain/Indicator: TA100, Metabolic Activation: NONE, Method: STANDARD PLATE.
Setting [2] is: Test System: AMES SALMONELLA TYPHIMURIUM, Strain/Indicator: TA100, Metabolic Activation: NONE, Method: PREINCUBATION
Where [3] appears, read: Test System: AMES SALMONELLA TYPHIMURIUM, Strain/Indicator: TA98, Metabolic Activation: RAT, LIVER, S-9, AROCLOR 1254, Method: STANDARD PLATE.
Where [4] appears, read: Test System: AMES SALMONELLA TYPHIMURIUM, Strain/Indicator: TA1535, Metabolic Activation: NONE, Method: STANDARD PLATE.
Setting [5] is: Test System: MOUSE LYMPHOMA, Strain/Indicator: L5178Y (TK+/TK-), Metabolic Activation: RAT, LIVER, S-9, AROCLOR 1254, Method: SUSPENSION/PLATE.
The mark [6] stands for this setting: Test System: AMES SALMONELLA TYPHIMURIUM, Strain/Indicator: TA1538, Metabolic Activation: RAT, LIVER, S-9, AROCLOR 1254, Method: STANDARD PLATE.
The mark [7] stands for this setting: Test System: AMES SALMONELLA TYPHIMURIUM, Strain/Indicator: TA100, Metabolic Activation: RAT, LIVER, S-9, AROCLOR 1254, Method: STANDARD PLATE.

For `O=c1c(O)c(-c2ccc(O)c(O)c2)oc2cc(O)cc(O)c12`, the mutagenic call is, setting by setting: (Test System: AMES SALMONELLA TYPHIMURIUM, Strain/Indicator: TA97, Metabolic Activation: RAT, LIVER, S9, AROCLOR 1254, Method: STANDARD PLATE) “inactive; negative [study A] and active; positive [study B]”; (Test System: AMES SALMONELLA TYPHIMURIUM, Strain/Indicator: TA102, Metabolic Activation: NONE, Method: STANDARD PLATE) “active; positive [study A] and inactive; negative [study B]”.

With `S.S.S.[As].[As]`, for the setting “End Point: IN VIVO MICRONUCLEUS, Test System: BONE MARROW POLYCHROMATIC ERYTHROCYTES, Species: MOUSE, Strain/Sex: CBA/MALE, Route: ORAL”, the mutagenic call was “inactive; negative (2×) and active; positive”.

`COc1cccc2c1C(=O)c1c(O)c3c(c(O)c1C2=O)C[C@@](O)(C(=O)CO)C[C@@H]3O[C@H]1C[C@H](N)[C@H](O)[C@H](C)O1`: the mutagenic call by setting is: (End Point: In vitro chromosomal aberrations, Test System: Chinese hamster ovary (CHO-9) cells, Metabolic Activation: None) “active; positive (structural changes); pretreatment with curcumin increased the effect o; also recorded: active; positive (structural changes)”; (End Point: In vivo micronucleus, Test System: Bone marrow erythrocytes, Species: Mouse, Strain/Sex: Swiss albino/Male, Route: Intraperitoneal) “active; positive (weaker response than with doxorubicin alone); also recorded: active; positive (all regimens)”; under setting [1], “inactive; negative [study A] and active; positive [study B] and inactive; negative [study C]”; (Test System: CHINESE HAMSTER V-79, Strain/Indicator: V-79/6-THIOGUANINE, Metabolic Activation: NONE, Method: SUSPENSION/PLATE) “inactive; negative [study A] and active; positive [study B]”.

For the molecule `COc1cc2c(c3oc(=O)c4c(c13)CCC4=O)[C@@H]1C=CO[C@@H]1O2`, the mutagenic call is, setting by setting: (Test System: AMES SALMONELLA TYPHIMURIUM, Strain/Indicator: TA100, Metabolic Activation: NONE, Method: MICROSUSPENSION) “inactive; negative and active; positive”; under setting [2], “active; positive (2×) and inactive; negative”; under setting [1], “active; positive [study A] and active; positive [study B] and inactive; negative [study C]”.

Take `CC(=O)NO`: the mutagenic call under setting [1] is “inactive; negative [study A] and active; positive [study B]”.

Take `CCOP(=O)(OCC)O/C(=C\Cl)c1ccc(Cl)cc1Cl`: the mutagenic call under setting [1] was “active; positive [study A] and inactive; negative [study B]”.

Regarding `Cc1ccccc1N`, the mutagenic call under setting [3] was “active; positive [study A] and inactive; negative [study B]”.

Consider `CC/C(=C(/CC)c1ccc(O)cc1)c1ccc(O)cc1`, for which the mutagenic call was “inactive; negative; toxicity at 50 ug/plate [study A]; also recorded: inactive; negative [study B]” under setting [4]; “inactive; negative; toxicity at 50 ug/plate [study A]; also recorded: inactive; negative [study B]” (Test System: AMES SALMONELLA TYPHIMURIUM, Strain/Indicator: TA1537, Metabolic Activation: NONE, Method: STANDARD PLATE); “active; positive [study A] and active; positive [study B] and inactive; negative [study C]” under setting [5]; “inactive; negative [study A] and active; positive [study B]” (Test System: MOUSE LYMPHOMA, Strain/Indicator: L5178Y (TK+/TK-), Metabolic Activation: RAT, LIVER, S-9, Method: SUSPENSION/PLATE).

As to `O=C(O)C(Cl)Cl`, the mutagenic call by setting is: (End Point: IN VITRO CHROMOSOMAL ABERRATIONS, Test System: CHL CELLS, Metabolic Activation: NONE) “active; positive (structural changes); authors report equivocal results for ploidy chang; also recorded: active; positive (structural changes)”; (Test System: Ames Salmonella typhimurium, Strain/Indicator: TA98, Metabolic Activation: None, Method: Preincubation) “inactive; negative (ntp described results in one trial as equivocal); also recorded: inactive; negative”.

Turning to `Nc1ccc2cc3ccccc3cc2c1`, under setting [4], the mutagenic call is “inactive; negative [study A] and active; positive [study B] and inactive; negative [study C]”.

Take `c1ccc2n[nH]nc2c1`: the mutagenic call reads like this: (Test System: E. COLI, Strain/Indicator: WP2 UVRA, Metabolic Activation: HAMSTER, LIVER, S-9, AROCLOR 1254, Method: STANDARD PLATE) “inactive; negative [0.3 to 333.3 µg/plate] and active; positive [10 to 3333.3 µg/plate]”; (Test System: E. COLI, Strain/Indicator: WP2 UVRA, Metabolic Activation: HAMSTER, LIVER, S-9, Method: STANDARD PLATE) “inactive; negative [0.3 to 333.3 µg/plate] and active; positive [1 to 10000 µg/plate]”; (Test System: E. COLI, Strain/Indicator: WP2 UVRA, Metabolic Activation: MOUSE, LIVER, S-9, Method: STANDARD PLATE) “inactive; negative [0.3 to 333.3 µg/plate] and active; positive [1 to 1000 µg/plate] and active; positive [3.3 to 3333.3 µg/plate]”; (Test System: E. COLI, Strain/Indicator: WP2 UVRA, Metabolic Activation: NONE, Method: STANDARD PLATE) “inactive; negative [0.3 to 3333.3 µg/plate] and active; positive [1 to 10000 µg/plate]”; (Test System: E. COLI, Strain/Indicator: WP2 UVRA, Metabolic Activation: RAT, LIVER, S-9, AROCLOR 1254, Method: STANDARD PLATE) “inactive; negative [0.3 to 333.3 µg/plate] and active; positive [1 to 10000 µg/plate]”; (Test System: E. COLI, Strain/Indicator: WP2 UVRA, Metabolic Activation: RAT, LIVER, S-9, Method: STANDARD PLATE) “inactive; negative [0.3 to 333.3 µg/plate] and active; positive [1 to 10000 µg/plate] and active; positive [3.3 to 3333.3 µg/plate]”.

For `Cc1cc(-c2ccc(N/N=C3/C(=O)c4c(N)cc(S(=O)(=O)O)cc4C=C3S(=O)(=O)O)c(C)c2)ccc1N/N=C1/C(=O)c2c(N)cc(S(=O)(=O)O)cc2C=C1S(=O)(=O)O`, the mutagenic call under setting [6] was “active; positive [study A] and inactive; negative [study B]”.

With `O=C([O-])c1ccc2ccccc2c1.O=C([O-])c1ccc2ccccc2c1.[Pb+2]`, the mutagenic call under setting [5] is “active; positive. reevaluation of results: positive [study A]; also recorded: active; positive [study B]”.

Turning to `O=[N+]([O-])c1ccc2c(c1)Oc1ccccc1O2`, the mutagenic call (Test System: AMES SALMONELLA TYPHIMURIUM, Strain/Indicator: TA98(NR), Metabolic Activation: NONE, Method: PREINCUBATION) was “inactive; negative and active; positive”.

Regarding `O=C1OCC(C(Cl)Cl)=C1Cl`, the mutagenic call under setting [7] is “active; positive [study A] and inactive; negative [study B]”.

Regarding `CCN(CC)CCCC(C)Nc1ccnc2cc(Cl)ccc12` (stereo not given), under setting [1], the mutagenic call is “inactive; negative [study A] and active; positive [study B]”.

Consider `Nc1ccc2c(c1)C(=O)c1ccc(N)cc1C2=O`, for which the mutagenic call under setting [6] was “active; positive and inactive; negative”.

With `[N-]=[N+]=[N-]`, the mutagenic call reads like this: under setting [7], “inactive; negative [study A] and active; positive [study B]”; (Test System: Ames Salmonella typhimurium, Strain/Indicator: TA100, Metabolic Activation: None, Method: Preincubation) “active; positive (decrease in mutagenicity when 0.99-;5.90 mg/plate of chloroform extrac [study A]; also recorded: active; positive (decrease in mutagenicity when 1.82-7.30 mg/plate of methanol extract o [study A]; also recorded: active; positive [study B]”.

On to `CC(=O)c1ccc[nH]1`, for which the mutagenic call is “active; positive [study A] and inactive; negative [study B]” (Test System: AMES SALMONELLA TYPHIMURIUM, Strain/Indicator: TA98, Metabolic Activation: NONE, Method: STANDARD PLATE); “inactive; negative [study A] and active; positive [study B]” under setting [3].

Regarding `CC(C)CON=O`, the mutagenic call reads like this: (Test System: AMES SALMONELLA TYPHIMURIUM, Strain/Indicator: TA1535, Metabolic Activation: NONE, Method: PREINCUBATION) “active; positive [study A] and inactive; negative [study B]”; (Test System: Mouse lymphoma, Strain/Indicator: L5178Y (tk+/tk-), Metabolic Activation: None, Method: Suspension/plate) “active; positive; also recorded: active; equivocal (previously evaluated positive); also recorded: equivocal”.

As to `O=C1OCC(Cl)=C1Cl`, under setting [1], the mutagenic call was “inactive; negative [study A] and active; positive [study B]”.

Regarding `CCCN(CCC)N=O`, the mutagenic call was “inactive; negative [study A] and active; positive [study B]” (Test System: AMES SALMONELLA TYPHIMURIUM, Strain/Indicator: TA100, Metabolic Activation: MOUSE, LIVER, S-9, Method: PREINCUBATION); “inactive; negative and active; positive” (Test System: AMES SALMONELLA TYPHIMURIUM, Strain/Indicator: TA2410, Metabolic Activation: NONE, Method: HOST-MEDIATED); “inactive; negative and active; positive” (Test System: AMES SALMONELLA TYPHIMURIUM, Strain/Indicator: TA2678, Metabolic Activation: NONE, Method: HOST-MEDIATED).

`Nc1ccc(Oc2ccc(N)cc2)cc1`: the mutagenic call is, setting by setting: (End Point: IN VITRO CHROMOSOMAL ABERRATIONS, Test System: CHO CELLS, Metabolic Activation: NONE) “inactive; negative; positive response at 160 ug/ml; precipitation occurred at 1600 and 200; also recorded: active; positive; precipitation occurred at 2000 and 3000 ug/ml (2×)”; (Test System: AMES SALMONELLA TYPHIMURIUM, Strain/Indicator: TA98, Metabolic Activation: NONE, Method: PREINCUBATION) “inactive; negative [study A] and active; positive [study B] and inactive; negative [study C]”; under setting [2], “inactive; negative [study A] and active; positive [study B] and inactive; negative [study C]”.
